Measurements from PubChem BioAssay AID1460 (National Center for Advancing Translational Sciences (NCATS), 2008).
Among all 270,000 compounds or so, about 5,800 (2.1%) were called active. Inconclusive means that the source gave no clear call. Such entries were picked first, then a sample of the others. Calls come from the whole dose curve; as a rule, active = well fitted inhibition curve with a large enough effect; inconclusive = small, poorly fitted or top-dose-only effect; inactive = flat fitted curve, though single readings scatter. Potencies of inconclusive entries are doubtful fits and often do not repeat.

Molecular target: Microtubule-associated protein tau (Homo sapiens) (UniProt P10636)
Assay: qHTS for Inhibitors of Tau Fibril Formation, Thioflavin T Binding; note: nearly all actives have a fitted effect of over 55% in size
Settings: recombinant tau K18 P301L (four-repeat tau fragment), heparin-induced fibrillization, ThT fluorescence; series mostly up to 57.4 µM; activity, negative = inhibition: at the top concentration
Summary of the method: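 Heparin-induced (20 uM) aggregation of recombinant human K18 P301L tau, 15 uM unlabeled with 0.24 uM labeled, pH 7 acetate buffer, 6 hr at 37 C with compound. Fibrils quantified by 30 uM ThT fluorescence after 1 hr ambient incubation.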
% is set by controls: 0 for no effect and ±100 for the full control effect; potency is the fitted concentration of half-maximal effect; tags give direction and shape of the fitted curve.

Sequence of UniProt P10636 (P10636 whole entry, looked up): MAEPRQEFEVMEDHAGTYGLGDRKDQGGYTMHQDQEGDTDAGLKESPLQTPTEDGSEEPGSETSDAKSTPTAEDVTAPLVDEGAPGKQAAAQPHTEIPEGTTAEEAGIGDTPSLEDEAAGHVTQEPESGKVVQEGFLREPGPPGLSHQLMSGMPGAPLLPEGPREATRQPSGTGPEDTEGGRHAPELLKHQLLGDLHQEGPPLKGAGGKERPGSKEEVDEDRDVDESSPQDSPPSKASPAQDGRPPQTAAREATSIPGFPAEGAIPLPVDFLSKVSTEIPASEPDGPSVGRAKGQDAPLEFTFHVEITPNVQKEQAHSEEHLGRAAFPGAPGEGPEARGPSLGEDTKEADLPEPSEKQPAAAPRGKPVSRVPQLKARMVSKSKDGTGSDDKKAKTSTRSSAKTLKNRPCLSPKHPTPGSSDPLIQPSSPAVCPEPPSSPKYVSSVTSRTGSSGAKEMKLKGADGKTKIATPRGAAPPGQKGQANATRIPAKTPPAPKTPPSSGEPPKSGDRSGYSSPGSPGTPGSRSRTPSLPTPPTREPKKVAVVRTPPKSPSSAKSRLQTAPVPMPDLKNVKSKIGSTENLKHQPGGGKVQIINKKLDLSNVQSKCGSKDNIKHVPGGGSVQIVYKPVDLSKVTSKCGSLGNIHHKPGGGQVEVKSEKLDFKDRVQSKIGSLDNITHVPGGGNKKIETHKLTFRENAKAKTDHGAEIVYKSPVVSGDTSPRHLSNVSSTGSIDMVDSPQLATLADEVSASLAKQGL

SMILES | Potency | activity, negative = inhibition
CCOC(=O)c1ccc(N2C(=O)CC(N3CCC(Nc4ccc(F)cc4)CC3)C2=O)cc1 (stereo not given) | inconclusive: 20 µM [inhibitor, partial curve] | 
Cc1ccccc1N=Cc1cc2c(cc1O)OC(N)=C(C#N)C2c1ccccc1 (stereo not given) | inconclusive: 28.2 µM [inhibitor, partial curve] | 
CC(C)OCCCNC(=O)CN1C(=O)c2ccccc2Sc2ncccc21 |  | inactive: 9.84%
Cc1onc(-c2ccccc2Cl)c1C(=O)Nc1ccc(-c2nnc3n2CCCCC3)cc1 |  | inactive: -14.4%
Cc1sc(NC(=O)CSc2nnc(-c3ccc(F)cc3)o2)c(C#N)c1C | inconclusive: 25.1 µM [inhibitor, partial curve] | 
Cc1[nH]n(-c2ccc([N+](=O)[O-])cc2)c(=O)c1C=NCCN1CCN(C(=O)C(C)C)CC1 | inconclusive: 15.8 µM [inhibitor, partial curve] | 
C/C(=N/Nc1ccc(C(=O)O)cc1)c1ccc(O)c(O)c1O | active: 11.2 µM | 
COc1ccc(N2CCN(Cc3nc(N)nc(Nc4ccccc4OC)n3)CC2)cc1 | inconclusive: 8.91 µM [inhibitor, partial curve] | 
CSc1ccc(Cl)c(C(=O)Nc2ccc(N3CCOCC3)cc2)c1 |  | inactive: -16.8%
Cc1ccc2[nH]c(=O)c3cc(C(=O)N4CCN(c5ccccc5)CC4)sc3c2c1 | inconclusive: 4.47 µM [inhibitor, partial curve] | 
CC(=O)c1cc(O)c2ccccc2c1O | active: 28.2 µM | 
CCOc1ccc(CCNC(=O)CCc2c(C)nc3c4c(C)cc(C)nc4nn3c2C)cc1 | inconclusive: 20 µM [inhibitor, partial curve, poor fit] | 
O=C(Nc1cnn(Cc2ccc(Cl)c(Cl)c2)c1)C12CC3CC(CC(C3)C1)C2 | inconclusive: 28.2 µM [inhibitor, single point] | 
CCOC(=O)C1CCN(S(=O)(=O)c2c(C)n(C)c(=O)n(C)c2=O)CC1 |  | inactive: -2.4%
COc1ccc(NC(=O)CCOc2ccccc2)cc1 | inconclusive: 20 µM [inhibitor, partial curve, poor fit] | 
O=C(Nc1nccs1)c1cc2cc(Cl)ccc2oc1=O | inconclusive: 2.51 µM [inhibitor, partial curve] | 
CC1CC(C)CN(C(=O)c2cc3cc(Br)cc(Br)c3o2)C1 (stereo not given) | inconclusive: 39.8 µM [inhibitor, single point] | 
Cc1cc(C)c(Cn2c3ccccc3c3cnn(CC(=O)NC4CCC(C)CC4)c(=O)c32)c(C)c1 (stereo not given) |  | inactive: 3.14%
O=C(CCc1nc2ccccc2c(=O)[nH]1)Nc1ccc(Cl)c(Cl)c1 | inconclusive: 20 µM [inhibitor, single point] | 
CC1(C)CCC(NC(=O)[C@@H](N)CCC(=O)O)CC1 |  | inactive: -4.95%
CN(C)c1ccc(/C=N/Nc2cc(N3CCOCC3)nc(N3CCOCC3)n2)cc1 | active: 7.94 µM | 
Clc1cccc(N2CCN(c3ncnc4c3nc3n4CCCCC3)CC2)c1 | inconclusive: 28.2 µM [inhibitor, single point] | 
CCOC(=O)c1scc(-c2ccccc2)c1S(=O)(=O)Nc1ccccc1F | inconclusive: 39.8 µM [inhibitor, single point] | 
COc1cc(/C=C/c2ccc3cccc(OC)c3n2)c(O)c([N+](=O)[O-])c1 | active: 1 µM | 

SMILES | Potency | activity, negative = inhibition
COc1ccc(OCCCC(=O)Nc2cc([N+](=O)[O-])ccc2C)cc1 |  | inactive: -12.1%
CCCc1nn2c(=O)cc(COC(=O)c3cccc(NC(=O)COc4ccc(F)cc4)c3)nc2s1 | inconclusive: 0.251 µM [inhibitor, full curve, poor fit] | 
COc1ccc(CCNc2ccc(C(CC(N)=O)NC(=O)Cc3cccc4ccccc34)cc2[N+](=O)[O-])cc1 (stereo not given) | inconclusive: 8.91 µM [inhibitor, partial curve] | 
CC(C)c1ccc(C2N3CC4(C)CN2CC(c2ccccc2)(C3)C4=O)cc1 (stereo not given) | inconclusive: 20 µM [inhibitor, single point] | 
COCCn1c(C)cc(C(=O)CSc2nnc(-c3cccnc3)n2-c2ccccc2F)c1C | inconclusive: 39.8 µM [inhibitor, single point] | 
Fc1ccc(NC(=S)Nc2cc(-c3ccccc3)[nH]n2)cc1Cl |  | inactive: 5.65%
Cc1ccc(N(CC(=O)NCCc2ccc(Cl)cc2)S(=O)(=O)N(C)C)cc1 |  | inactive: -6.92%
CC(=O)c1ccc(S(=O)(=O)Nc2ccc(-c3cn4c(n3)SCC4)cc2)cc1 | inconclusive: 35.5 µM [inhibitor, partial curve] | 
O=C(Nc1ccc2oc(-c3cccnc3)nc2c1)c1cccc(Br)c1 | inconclusive: 0.316 µM [inhibitor, full curve] | 
O=C(N/N=C/c1c(Cl)nc2ccccn2c1=O)c1cccnc1 | inconclusive: 3.55 µM [inhibitor, partial curve] | 
COc1ccccc1C(=O)NN1C(=O)/C(=C/c2cccn2C)SC1=S | inconclusive: 0.891 µM [inhibitor, full curve] | 
Cc1ccc(C)n1-c1nnc(N2CCCC(C(=O)NCc3ccc(Cl)cc3)C2)s1 (stereo not given) |  | inactive: -20.1%
CC/C(=C/c1sc2ccc(C)cc2[n+]1CCO)SC | inconclusive: 17.8 µM [inhibitor, partial curve] | 
Cc1ccc(-c2nc3cc(C(C)C)ccc3o2)cc1NC(=O)c1cc2ccccc2o1 | inconclusive: 39.8 µM [inhibitor, single point] | 
CCc1ccc(OCC(=O)N2c3ccccc3CCc3ccccc32)cc1 | inconclusive: 31.6 µM [inhibitor, partial curve] | 
CCOC(=O)c1c(C)[nH]c2ccc3c(c12)CN1CCc2cc(OC)ccc2[C@@H]1O3 | inconclusive: 28.2 µM [inhibitor, single point] | 
CCN1C(=O)/C(=C2/Sc3ccccc3N2CCCS(=O)(=O)O)SC1=S | inconclusive: 39.8 µM [inhibitor, single point] | 
CCOC(=O)C1=C([Si](C)(C)C)c2ccccc2N(S(=O)(=O)C(F)(F)F)C1C(=O)OCC (stereo not given) | inconclusive: 20 µM [inhibitor, single point] | 
Cc1ccc(Cn2c(C(=O)O)c(CNCc3ccccc3Cl)c3ccc(C)cc32)cc1 |  | inactive: 16.5%
COc1cc(/C=N/NC(=O)c2csc3c2CCCC3)cc(OC)c1O | inconclusive: 35.5 µM [inhibitor, single point] | 
c1cnc(SCCCOc2ccc3ccccc3c2)nc1 | inconclusive: 7.94 µM [inhibitor, partial curve] | 
COCCNC(=O)/C(C#N)=C/c1cc(C)n(-c2ccc(C)cc2)c1C | inconclusive: 44.7 µM [inhibitor, single point] | 
O=C1NCCC/C1=N/Nc1ccc(F)cc1 |  | inactive: -3.94%
COc1c(Br)cc(Br)cc1C(=O)O |  | inactive: -2.8%

SMILES | Potency | activity, negative = inhibition
CN1/C(=C\C=N\NC(=O)c2cccnc2)C(C)(C)c2ccccc21 | inconclusive: 15.8 µM [inhibitor, partial curve] | 
Cc1ccc(C)c(OCCCNC2CCCC2)c1C |  | inactive: -1.69%
Oc1[nH]c2ccccc2c1N=Nc1ccc(C(F)(F)F)cn1 | inconclusive: 4.47 µM [inhibitor, partial curve] | 
CCOC(=O)C1CCCN(c2nc(C)nc3c2oc2ccccc23)C1 (stereo not given) | inconclusive: 17.8 µM [inhibitor, partial curve, poor fit] | 
Cc1ccc(Cl)cc1N1CCN(C(=O)c2cnc(N3CCOCC3)c3ccccc23)CC1 |  | inactive: -14.8%
CC(C)Cn1c(O)c(/C=C2\C=NN=C2c2ccccc2)sc1=S |  | inactive: -11.2%
CCOc1ccc(OCCN2C(=O)NC(Cc3c[nH]c4ccccc34)C2=O)cc1 (stereo not given) |  | inactive: -11.4%
COc1cc(OC)c(OC)cc1/C=C1/C(=O)N=C(N)N1C | inconclusive: 14.1 µM [inhibitor, partial curve] | 
CC1=CC(C)(C)Nc2ccc(OC(=O)CCN3C(=O)c4ccccc4C3=O)cc21 | inconclusive: 14.1 µM [inhibitor, partial curve] | 
Cc1ccc2c(c1)C1CN(C)CCC1N2C(=S)NC(=O)c1ccc(Br)cc1 (stereo not given) |  | inactive: -13%
CCC1=Nc2cc(C(=O)NCC3CCCO3)ccc2Sc2ccc(Br)cc21 (stereo not given) | inconclusive: 6.31 µM [inhibitor, single point] | 
Cc1cn2c(=O)cc(COC(=O)c3cccc(NC(=O)COc4ccccc4Cl)c3)nc2s1 | inconclusive: 1 µM [inhibitor, full curve, poor fit] | 
Cc1ccc(CNC(=O)CSCc2cccc(F)c2)cc1 |  | inactive: 7.07%
CC(NS(=O)(=O)c1ccccc1)C(c1cccs1)N1CCN(C)CC1 (stereo not given) |  | inactive: -0.288%
CN(/N=C/c1c[nH]c2ccccc12)c1cnn(-c2ccc(F)c(Cl)c2)c(=O)c1Cl | inconclusive: 0.708 µM [inhibitor, full curve] | 
CC(=O)Nc1ccc(C(=O)CSc2cc(C)c3cccc(C)c3n2)cc1 |  | inactive: 6.87%
NNC(=O)c1ccc(COc2cccc3ccccc23)o1 | inconclusive: 12.6 µM [inhibitor, partial curve] | 
CC1=CC(C)(C)N2C(=O)C3(NCCc4c3[nH]c3ccccc43)c3cccc1c32 (stereo not given) | inconclusive: 28.2 µM [inhibitor, single point] | 
O=C(c1ccc(C(F)(F)F)cc1)N1CCC(=O)N(C(COCc2ccc(Cl)cc2)Cc2ccccc2)CC1 (stereo not given) | inconclusive: 12.6 µM [inhibitor, partial curve, poor fit] | 
CN(C)c1ccc(/C=N/NS(=O)(=O)c2ccc(Br)cc2)cc1 | inconclusive: 10 µM [inhibitor, partial curve, poor fit] | 
Cc1ccccc1C(=O)N1CCC(C(=O)Nc2ccc3c(c2)OCCO3)CC1 |  | inactive: -14.2%
COc1cc(O)c(C(=O)/C=C/c2ccc(OC)c(O)c2)c(OC)c1 | active: 3.16 µM | 
